# Reference: the supplement of paper PMC7826260
# Some of the results follow. Each Rep nickase domain was tested in vitro on the same pool of single strands (3 µM enzyme, 1 h, 37 °C); shown is the middle of each 90-letter strand. Values are log2 of uncut reads against the no-enzyme pool; the lower, the more was cut; hits are not called. Counts are relative to all reads; values above 0 arise when much of the pool is cut.
# System: T1, Rep nickase domain of Muscovy duck circovirus
# T1 sequence (residues 1-111 of Rep, tag left off): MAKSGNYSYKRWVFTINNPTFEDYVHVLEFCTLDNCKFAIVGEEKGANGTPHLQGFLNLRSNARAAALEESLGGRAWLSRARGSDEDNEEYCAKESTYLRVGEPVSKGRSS
# Test: uncleaved DNA left, log2 of reads against the no-enzyme library (log2 ratio); higher = less cleavage (more negative = more Rep cleavage of the k-mer); sequences stand for … in CTCGTCCG…ACCGGAGA
# Experimental: (§1)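 A pool of 90-nt single-stranded DNAs with seven random bases just before the constant AC of the nick site (name = the seven bases) was cut by 3 µM recombinant His6-SUMO-tagged Rep nickase domain (300 nM DNA, 50 mM HEPES pH 8.0, 50 mM NaCl, 1 mM MnCl2, 1 h, 37 °C, three replicates). Uncut DNA was amplified and sequenced.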
row,Sequence,uncleaved DNA left (log2)
1,AGGCTAA,-0.0913
2,TCAGGAT,0.00287
3,CAATTAA,-0.144
4,GATGTAC,0.0214
5,TATGCCA,-0.0642
6,CCAAACC,-0.149
7,ACACTGC,0.144
8,CATCAGG,0.149
9,CTCGGGT,0.156
10,CCTGTCA,-0.00776
11,TCATATG,-0.0711
12,TATCTCC,0.0993
13,CAGTGAA,-0.0678
14,AGTCCCA,-0.0158
15,CGGGCCC,-0.0171
16,AACGCCA,-0.0741
17,CACTGAA,0.0256
18,CTCAGCT,-0.0199
19,GCGTGCG,-0.137
20,CCCAAAC,-0.0349

row,Sequence,uncleaved DNA left (log2)
1,ACTTGCT,0.0806
2,TAATTGT,-3.77
3,CAACTGT,0.114
4,GCGGAAC,-0.0561
5,TATCTAT,0.0192
6,CCACGAG,0.0956
7,TTCTCTT,-2.71
8,CTCCTTA,-0.0214
9,CAAACTG,0.0073
10,TTCATCG,0.102
11,AGTATAA,0.102
12,GTCTTGC,-0.0108
13,AGTAATT,0.0149
14,ATAGCCG,0.0212
15,GACACTC,-0.0526
16,GGAAACT,-0.0238
17,GCCCAAT,-0.0335
18,CCCCTGG,-0.194
19,GTAATTG,0.0727
20,TCACGTG,0.0109

# System: T2, Rep nickase domain of banana bunchy top virus
# T2 sequence (residues 1-94 of Rep, tag left off): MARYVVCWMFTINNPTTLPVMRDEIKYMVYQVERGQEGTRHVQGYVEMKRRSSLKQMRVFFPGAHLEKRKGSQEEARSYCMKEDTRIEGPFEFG
# Test: as above
# Experimental: as §1
row,Sequence,uncleaved DNA left (log2)
1,AGGCTAA,-0.0589
2,TCAGGAT,0.0767
3,CAATTAA,-0.0518
4,GATGTAC,-0.0804
5,TATGCCA,-0.0381
6,CCAAACC,0.0951
7,ACACTGC,0.0282
8,CATCAGG,0.136
9,CTCGGGT,0.169
10,CCTGTCA,-0.0781
11,TCATATG,-0.0975
12,TATCTCC,-0.00199
13,CAGTGAA,-0.053
14,AGTCCCA,-0.0208
15,CGGGCCC,0.0395
16,AACGCCA,-0.0243
17,CACTGAA,0.0834
18,CTCAGCT,-0.115
19,GCGTGCG,-0.118
20,CCCAAAC,-0.0737

row,Sequence,uncleaved DNA left (log2)
1,ACTTGCT,0.0698
2,TAATTGT,-0.289
3,CAACTGT,-0.0391
4,GCGGAAC,-0.0649
5,TATCTAT,-0.0342
6,CCACGAG,0.0567
7,TTCTCTT,-0.249
8,CTCCTTA,-0.0821
9,CAAACTG,0.0799
10,TTCATCG,-0.0223
11,AGTATAA,0.00436
12,GTCTTGC,0.0701
13,AGTAATT,-0.469
14,ATAGCCG,0.0284
15,GACACTC,-0.0553
16,GGAAACT,0.0689
17,GCCCAAT,0.174
18,CCCCTGG,-0.154
19,GTAATTG,-0.0553
20,TCACGTG,-0.0261

# System: T3, Rep nickase domain of cabbage leaf curl virus
# T3 sequence (residues 1-116 of Rep, tag left off): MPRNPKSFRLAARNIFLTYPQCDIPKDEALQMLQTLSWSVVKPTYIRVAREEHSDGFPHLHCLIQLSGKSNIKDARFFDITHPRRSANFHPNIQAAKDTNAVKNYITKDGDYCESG
# Test: as above
# Experimental: as §1
row,Sequence,uncleaved DNA left (log2)
1,AGGCTAA,0.0067
2,TCAGGAT,0.152
3,CAATTAA,-0.36
4,GATGTAC,0.172
5,TATGCCA,-0.335
6,CCAAACC,-0.0507
7,ACACTGC,-0.397
8,CATCAGG,0.248
9,CTCGGGT,0.472
10,CCTGTCA,0.0517
11,TCATATG,-0.566
12,TATCTCC,-0.05
13,CAGTGAA,-0.0788
14,AGTCCCA,0.336
15,CGGGCCC,0.487
16,AACGCCA,-0.0814
17,CACTGAA,-0.0783
18,CTCAGCT,-0.295
19,GCGTGCG,-0.655
20,CCCAAAC,0.0775

row,Sequence,uncleaved DNA left (log2)
1,ACTTGCT,-0.381
2,TAATTGT,-4.2
3,CAACTGT,-0.185
4,GCGGAAC,0.474
5,TATCTAT,-0.0304
6,CCACGAG,0.0525
7,TTCTCTT,-0.239
8,CTCCTTA,-0.0647
9,CAAACTG,0.0817
10,TTCATCG,-0.803
11,AGTATAA,-0.0205
12,GTCTTGC,0.215
13,AGTAATT,0.0917
14,ATAGCCG,-0.891
15,GACACTC,0.279
16,GGAAACT,0.58
17,GCCCAAT,0.177
18,CCCCTGG,-0.0262
19,GTAATTG,-0.0851
20,TCACGTG,-0.607

# System: T4, Rep nickase domain of chickpea chlorotic dwarf virus
# T4 sequence (residues 1-124 of Rep, tag left off): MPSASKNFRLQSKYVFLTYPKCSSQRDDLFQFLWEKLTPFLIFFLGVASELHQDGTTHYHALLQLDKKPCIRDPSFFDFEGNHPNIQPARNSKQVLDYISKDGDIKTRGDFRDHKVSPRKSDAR
# Test: as above
# Experimental: as §1
row,Sequence,uncleaved DNA left (log2)
1,AGGCTAA,0.237
2,TCAGGAT,1.45
3,CAATTAA,-1.06
4,GATGTAC,0.513
5,TATGCCA,-2.19
6,CCAAACC,-0.862
7,ACACTGC,-0.395
8,CATCAGG,0.819
9,CTCGGGT,0.82
10,CCTGTCA,-0.707
11,TCATATG,-0.744
12,TATCTCC,0.0586
13,CAGTGAA,0.0627
14,AGTCCCA,0.418
15,CGGGCCC,0.97
16,AACGCCA,-1.67
17,CACTGAA,0.303
18,CTCAGCT,-1.14
19,GCGTGCG,0.782
20,CCCAAAC,-0.47

row,Sequence,uncleaved DNA left (log2)
1,ACTTGCT,-0.397
2,TAATTGT,-3.3
3,CAACTGT,-0.381
4,GCGGAAC,1.26
5,TATCTAT,-1.22
6,CCACGAG,0.231
7,TTCTCTT,-2.09
8,CTCCTTA,-1.2
9,CAAACTG,0.613
10,TTCATCG,-0.524
11,AGTATAA,-0.0506
12,GTCTTGC,0.542
13,AGTAATT,-1.77
14,ATAGCCG,-0.00388
15,GACACTC,0.526
16,GGAAACT,1.01
17,GCCCAAT,0.417
18,CCCCTGG,0.307
19,GTAATTG,-0.0509
20,TCACGTG,-0.691

# System: T5, Rep nickase domain of faba bean necrotic yellows virus
# T5 sequence (residues 1-98 of Rep, tag left off): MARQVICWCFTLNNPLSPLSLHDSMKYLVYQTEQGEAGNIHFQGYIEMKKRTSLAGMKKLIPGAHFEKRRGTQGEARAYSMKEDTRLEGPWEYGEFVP
# Test: as above
# Experimental: as §1
row,Sequence,uncleaved DNA left (log2)
1,AGGCTAA,-0.169
2,TCAGGAT,0.141
3,CAATTAA,0.034
4,GATGTAC,0.0196
5,TATGCCA,0.0568
6,CCAAACC,0.106
7,ACACTGC,0.00218
8,CATCAGG,0.163
9,CTCGGGT,0.0409
10,CCTGTCA,0.0301
11,TCATATG,0.0199
12,TATCTCC,0.0203
13,CAGTGAA,0.0159
14,AGTCCCA,-0.0351
15,CGGGCCC,0.0384
16,AACGCCA,0.0691
17,CACTGAA,-0.0943
18,CTCAGCT,-0.0218
19,GCGTGCG,-0.0926
20,CCCAAAC,0.0679

row,Sequence,uncleaved DNA left (log2)
1,ACTTGCT,0.216
2,TAATTGT,-0.0643
3,CAACTGT,-0.0323
4,GCGGAAC,-0.207
5,TATCTAT,-0.129
6,CCACGAG,-0.0357
7,TTCTCTT,0.0131
8,CTCCTTA,0.0297
9,CAAACTG,0.072
10,TTCATCG,0.123
11,AGTATAA,-0.0201
12,GTCTTGC,-0.0766
13,AGTAATT,-1.09
14,ATAGCCG,0.0807
15,GACACTC,-0.0182
16,GGAAACT,0.0225
17,GCCCAAT,-0.0356
18,CCCCTGG,-0.0543
19,GTAATTG,-0.00541
20,TCACGTG,-0.0589
